Screen size: about 45,000 compounds; about 65 (0.1%) were called active. The call rests on the fitted dose curve; in most records, active means well fitted activation curve with a large enough effect; inconclusive means small, poorly fitted or top-dose-only effect; inactive means no such curve, though single readings can be large or run the other way. The list shows a part of the results.
molecular target: Galactocerebrosidase (Homo sapiens) (UniProt P54803); assay: A Novel Cell-Based Assay to Identify Small Molecules for B -Galactocerebrosidase; settings: 145M-Twi-hGALC-G270D cells (Twitcher mouse brain line with human GALC G270D), HMU-beta-Gal fluorescence, 48 h; series mostly up to 57.5 µM; activation: at the top concentration; further: 0% is about no effect; nearly all actives have a fitted effect of over 65% in size
Summary of the method: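 Live 145M-Twi cells (Twitcher mouse brain-derived, GALC-null) stably expressing human GALC-G270D, with a wild-type GALC line, were compound-treated. Residual GALC activity was then read as fluorescence from 0.1 mM final HMU-β-gal at pH 5.2; higher signal means activation.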

Chain of UniProt P54803 (P54803 whole entry, looked up): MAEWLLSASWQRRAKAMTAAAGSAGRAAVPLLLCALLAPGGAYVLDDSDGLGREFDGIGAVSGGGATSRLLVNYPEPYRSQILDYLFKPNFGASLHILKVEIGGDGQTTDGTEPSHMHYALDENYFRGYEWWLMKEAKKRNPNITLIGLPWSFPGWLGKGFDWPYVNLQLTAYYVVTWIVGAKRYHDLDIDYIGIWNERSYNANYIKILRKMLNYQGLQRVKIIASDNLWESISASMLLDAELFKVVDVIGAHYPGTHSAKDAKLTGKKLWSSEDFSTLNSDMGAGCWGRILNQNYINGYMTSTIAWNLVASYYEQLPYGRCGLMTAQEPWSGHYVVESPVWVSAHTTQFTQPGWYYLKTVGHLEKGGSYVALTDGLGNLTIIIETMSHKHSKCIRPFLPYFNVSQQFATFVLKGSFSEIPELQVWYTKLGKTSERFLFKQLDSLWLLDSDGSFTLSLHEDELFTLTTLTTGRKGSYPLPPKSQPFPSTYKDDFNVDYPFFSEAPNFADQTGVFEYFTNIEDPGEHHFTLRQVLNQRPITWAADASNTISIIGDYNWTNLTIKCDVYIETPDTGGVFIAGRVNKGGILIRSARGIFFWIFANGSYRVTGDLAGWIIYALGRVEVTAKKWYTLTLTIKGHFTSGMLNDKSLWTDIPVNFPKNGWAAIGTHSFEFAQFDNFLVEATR

activation, inactive:
COc1cc(OC)c(N(C)C(=O)CSc2c3c(nc4ccc(Cl)cc24)CCCC3)cc1Cl 2.42%
O=C(Nc1cccc(Cl)c1Cl)c1cc(S(=O)(=O)N2CCCc3ccccc32)ccc1F -3.66%
COc1ccc(CNC(=O)CSc2ncc3c(n2)-c2cc(Cl)ccc2N(C)S3(=O)=O)cc1 -17.5%
CC(C)c1cnc2c(c1SCC(=O)Nc1ccc(C(N)=O)cc1)c(=O)n(C)c(=O)n2C -15.3%
CCOC(=O)Cn1c(-c2cccs2)cc2cc(Cl)ccc21 -5.2%
O=C1CCCc2c(O)cccc21 -6.91%
COC(=O)c1c(NC(=O)/C=C/c2ccc(OC)cc2)sc2c1CCC2 -2.53%
COc1ccc(CCNC(=O)c2ccc3c(c2)N(Cc2cccc(Cl)c2)C(=O)c2ccccc2S3=O)cc1OC (configuration not stated) -10.8%
Cc1ccc(NC(=O)Nc2cccs2)c(C)c1 -15.6%
CCN1C(=O)c2ccccc2Sc2ccc(NC(=O)c3cccc(C)c3)cc21 -14.3%
CCOC(=O)c1cc(OC(=O)c2ccccc2OC)n(-c2ccccc2)n1 -16.2%
COc1ccc(N(C(=O)c2cccc(C)c2)S(=O)(=O)c2ccc3c(c2)n(C)c(=O)n3C)cc1 -18.4%
CN(CCCNC(=O)c1cc2c(=O)n(C)c3ccccc3c2s1)Cc1ccccc1 -9.65%
O=C(Cn1c(=O)n(-c2ccccc2)c(=O)c2ccc(C(=O)NCc3ccc4c(c3)OCO4)cc21)Nc1ccc(F)c(Cl)c1 -12.5%
CCc1ccc(N(CC)C(=O)c2sc3nc4n(c(=O)c3c2C)CCCC4)cc1 -11.4%
CCC(C)NC(=O)CSCc1nc(-c2ccc(C)cc2)oc1C (configuration not stated) -12.8%
O=C(c1ccccc1Br)N(Cc1ccccc1F)C1CCS(=O)(=O)C1 (configuration not stated) -20%
CN1CCN(C(=O)c2ccc3c(c2)N(Cc2ccc(Cl)cc2)C(=O)c2ccccc2S3(=O)=O)CC1 -6.43%
COc1ccc(OCC(=O)N(Cc2ccc(C)o2)C2CCS(=O)(=O)C2)cc1 (configuration not stated) -16.1%
CCOc1ccc(CCNC(=O)c2ccc(-c3nc(CSc4ccccc4)c(C)o3)cc2)cc1 -15.1%
Cc1cccc(CC(=O)NCCc2sc3nc(-c4ccc(F)cc4)nn3c2C)c1 -12.7%
O=C(Cn1c(=O)ccc2cc(S(=O)(=O)N3CCCC3)ccc21)Nc1ccc(Cl)cc1 -9.18%
Cc1ccc(Cl)cc1NC(=O)CSCc1cnn(-c2ccccc2)c1-n1cccc1 -11.8%
Cn1nnnc1SCCCNCc1ccccc1OCc1ccc(F)cc1 -11%
Cc1cccc(NS(=O)(=O)c2ccc3c(c2)CCN3C(=O)C2CC2)c1C -1.29%
NS(=O)(=O)c1cc(-c2nn[nH]n2)c(NCc2cccs2)cc1Cl -7.86%
COc1ccccc1NC(=O)CN1C(=O)CCSc2ccccc21 -29.6%
O=C(Cn1ncc2c3ccccc3n(Cc3cccc(Cl)c3)c2c1=O)NCCC1=CCCCC1 -9%
Cc1ccccc1Cn1c(=O)n(CCCCCC(=O)NCc2ccc3c(c2)OCO3)c(=O)c2sccc21 -6.83%
CO[C@@]1(NC(=O)CSCC#N)C(=O)N2C(C(=O)O)=C(CSc3nnnn3C)CS[C@@H]21 9.38%
CCOc1ccc(C(=O)NCCc2sc(-c3ccc(F)cc3)nc2C)cc1 -10.2%
COc1ccc(Nc2ncc(C(=O)N3CCN(c4ccccc4OC)CC3)c3ccccc23)cc1 -31.6%
CCOC(=O)c1ccc(NC(=O)CN2C(=O)c3cccnc3Sc3ccccc32)cc1 -8.37%
Cn1c(SCc2ccccc2Cl)nc(=O)c2c1NC(=O)CC2c1cc(F)ccc1F (configuration not stated) -7.33%
CCOc1ccc(NC(=O)Nc2c[nH]c(=O)[nH]c2=O)cc1 -13.3%
CCN(CC)c1ccc(CNS(=O)(=O)c2cc3c(cc2C)NC(=O)CO3)cc1 -12%
COc1ccc(NC(=O)CSc2ncc3c(n2)-c2ccccc2N(C)S3(=O)=O)cc1Cl -5.07%
CCOc1ccccc1CNC(=O)c1ccc2c(c1)nc1n2CCC(C)C1 (configuration not stated) -3.92%
CCOC(=O)c1ccccc1NC(=O)Cn1c(=O)n(-c2ccc(CC)cc2)c(=O)c2c(C)c(C(=O)N(C)C)sc21 -5.13%
O=C(Cn1c(SCC(=O)Nc2ccc(F)cc2)nc2ccccc21)NCc1ccc(Cl)cc1 -11.4%
Nc1ncc(S(=O)(=O)Nc2ccc(OC(F)(F)F)cc2)cn1 -4.92%
CC(C)Sc1nc2sc3c(c2c(=O)n1-c1ccccc1)CCCC3 -24.9%
CC(=O)c1ccc(N2C(=O)Nc3ccccc3S2(=O)=O)cc1 -4.3%
Cc1ccc(N2CC(NC(=O)c3ccccc3Br)CC2=O)cc1 (configuration not stated) -3.68%
O=C(Nc1ccc(F)c(Cl)c1)C1CCN(S(=O)(=O)c2ccc3c(c2)CCCN3C(=O)C2CCC2)CC1 14.3%
Cc1ccc(CSc2cn(CCNC(=O)c3cccs3)c3ccccc23)cc1 -39.6%
CCOc1ccc(NC(=O)c2nnn(-c3ccc(F)c(Cl)c3)c2C)cc1 -21.3%
CC1=C(C(=O)Nc2ccccc2)C(c2ccccn2)n2nc(SCc3ccccc3Cl)nc2N1 (configuration not stated) 13.2%
Cc1ccccc1NC(=O)Cn1cc(S(=O)(=O)N2CCCC2)c(S(=O)(=O)N2CCCC2)c1 -11.6%
COC(=O)c1ccc(Oc2nc3c(c(=O)n(C)c(=O)n3C)n2Cc2ccc(Cl)c(Cl)c2)cc1 -14%
CCC(=O)Nc1cccc(OCc2cc(=O)n3cc(C)ccc3n2)c1 -27.6%
O=C(Nc1nnc(S(=O)(=O)N2CCCCCC2)s1)c1ccccc1 -17.9%
COc1ccccc1N(CC(=O)Nc1cc(C)cc(C)c1)S(C)(=O)=O 19.2%
Cc1cc(NCc2ccc(Cl)cc2)n2cnnc2n1 -11.2%
CCc1ccc(NS(=O)(=O)c2c(-c3ccccc3)csc2C(=O)OC)cc1 -7.07%
CCc1cccc(NC(=O)Cn2ccn3nc(-c4ccc(OC)c(OC)c4)cc3c2=O)c1 -21.9%
Cc1cccc(-c2noc(-c3ccc(NCc4cccnc4)c([N+](=O)[O-])c3)n2)c1 -18.5%
CN(Cc1ccco1)S(=O)(=O)c1nnc(NC(=O)c2ccccc2)s1 -18.9%
Cc1ccc(OCc2cc(=O)n3c4c(sc3n2)CCCC4)cc1C -1.3%
COc1cc(OC)cc(C(=O)Nc2ccc3c(c2)n(C)c(=O)c(=O)n3C)c1 2.53%
O=C(NCc1ccccc1Cl)c1ccc(NC(=O)N2CCSc3ccccc32)cc1 -6.22%
COc1ccc(S(=O)(=O)N(CC(=O)Nc2ccc3c(c2)OCO3)c2ccc(C)cc2)cc1 -7.68%
COc1ccc(OC)c(NC(=O)c2c(NCc3ccc(N(C)C)cc3)sc3c2CCCC3)c1 -8.05%
COc1ccc(NC(=O)c2oc3ccccc3c2NC(=O)C23CC4CC(CC(C4)C2)C3)cc1 -14.7%
CCc1ccc2occ(CC(=O)Nc3sc4c(c3C(=O)NCCOC)CCCC4)c2c1 -9.45%
N=C(N)c1ccc(OCCCOc2ccc(C(=N)N)cc2)cc1 -9.25%
Cc1ccc(S(=O)(=O)C(CNC(=O)c2ccc(C(F)(F)F)cc2)c2ccco2)cc1 (configuration not stated) 9.38%
Cc1noc(-c2ccc(-c3noc(-c4cccc(Cl)c4)n3)cc2)n1 -22.1%
Cc1nc2nc(SCC(=O)NC3CCC(C)CC3)nn2c(C)c1Cc1ccccc1Cl (configuration not stated) -12.8%
O=C(Cn1cc(S(=O)(=O)c2ccccc2)c(=O)c2cc3c(cc21)OCO3)Nc1ccccc1 3.29%
Cn1cc(S(=O)(=O)N2CCCCC2)cc1C(=O)Nc1ccc(OC(F)(F)F)cc1 21.7%
O=C(NCCCc1ccccc1)c1nn(-c2ccccc2)nc1CO -19.7%
CCc1ccc2oc(-c3ccc(C)c(NC(=O)c4ccc(C#N)cc4F)c3)nc2c1 7.87%
CCOC(=O)c1ccc(NC(=O)CCC(=O)N2CCSc3ccccc32)cc1 5.83%
Cc1ccc(S(=O)(=O)n2nc(-c3ccco3)nc2NCc2ccc(N(C)C)cc2)cc1 12.4%
Cc1nc2c(-c3ccccc3)c(C)nn2c(C)c1CCC(=O)NCc1ccccc1 -50.8%
CCn1cc2nc(SCc3cccc(C)c3)n(CCc3ccccc3)c(=O)c2n1 -17.6%
COc1cccc(C(=O)COC(=O)c2cc(-c3cccs3)nc3ccccc23)c1 -6.28%
Cc1cc(NS(=O)(=O)c2cn(C)c(C)n2)ccc1Br -26.4%
COc1ccc(C(=O)NCc2nc(-c3cccc(C)c3)no2)cc1OC -21.9%
Cc1nc(-c2ccc(S(=O)(=O)NCc3ccc(F)cc3)cc2)co1 -14.5%
Cc1ccc(C)c(CN2C(=O)c3ccccc3S(=O)(=O)c3ccc(C(=O)NCCc4ccc(Cl)cc4)cc32)c1 7.77%
Cc1ccc(CCNc2nc3ccccc3c3nc(-c4cccnc4)nn23)cc1 1.7%
CCc1ccccc1NC(=O)C1CCN(c2nc3ccccc3[nH]2)CC1 -7.36%
Cc1ccccc1OCC(=O)Nc1nnc(SCc2cc(=O)n3cc(Cl)ccc3n2)s1 -3.67%
COc1cccc(CNC(=O)CCc2c(C)nc3c4c(C)cc(C)nc4nn3c2C)c1 -5.63%
COC(=O)c1ccccc1N(C)S(=O)(=O)c1cc2c3c(c1)CC(=O)N3CCC2 -15.1%
CCc1ccc(NC(=O)Cn2c(=O)nc(-c3ccccc3F)c3cc(Cl)ccc32)cc1 -16.6%
Cc1cc(C)nc(-n2nc(C)c3c2N(Cc2ccccc2C)C(=O)CC3c2ccc(Cl)cc2)n1 (configuration not stated) -17.9%
O=C(Nc1ccc(Oc2ccccc2)cc1)c1ccc(F)c(S(=O)(=O)N2CCN(c3ccccc3F)CC2)c1 -4.12%
CCOC(=O)c1c(C)[nH]c(C)c1S(=O)(=O)NCC(=O)NCc1cccc(Br)c1 -17.2%
CC(C)CCSc1nnc2n(-c3ccccc3)c(=O)c3c4c(sc3n12)CC(C)CC4 (configuration not stated) -3.98%
O=C(Cn1cc(S(=O)(=O)Cc2cccc(Cl)c2)c2ccccc21)NCc1ccccc1Cl 1.43%
Cc1ccc2cc3cc(C(=O)N4CCN(c5ccccc5)CC4)sc3nc2c1 -8.36%
COc1cccc(NC(=O)/C(C#N)=C/c2ccc(-c3ccc(C)cc3)o2)c1 -5.24%
O=C(Cn1ccc2cc(S(=O)(=O)N3CCCCCC3)ccc21)NCc1cccc(Cl)c1 -10.5%
Cc1coc2c(C)c3oc(=O)c(CCC(=O)N4CCCCC4)c(C)c3cc12 -2.03%

Reference: PubChem BioAssay AID1159614 (National Center for Advancing Translational Sciences (NCATS), 2016)
